Measured values reported in article PMC4336329 (PLoS ONE, 2015).
The campaign covered roughly 310,000 compounds. About 2,200 (0.71%) showed an effect of 50% or more. The effect is printed as a negative number. This is one part of the list.

The compounds below were run against human ether-à-go-go-related gene (hERG) potassium channel (human, UniProt Q12809) (assay: primary screen, population patch clamp on CHO cells stably expressing hERG).
Sequence of human ether-à-go-go-related gene (hERG) potassium channel (Q12809 whole entry, looked up): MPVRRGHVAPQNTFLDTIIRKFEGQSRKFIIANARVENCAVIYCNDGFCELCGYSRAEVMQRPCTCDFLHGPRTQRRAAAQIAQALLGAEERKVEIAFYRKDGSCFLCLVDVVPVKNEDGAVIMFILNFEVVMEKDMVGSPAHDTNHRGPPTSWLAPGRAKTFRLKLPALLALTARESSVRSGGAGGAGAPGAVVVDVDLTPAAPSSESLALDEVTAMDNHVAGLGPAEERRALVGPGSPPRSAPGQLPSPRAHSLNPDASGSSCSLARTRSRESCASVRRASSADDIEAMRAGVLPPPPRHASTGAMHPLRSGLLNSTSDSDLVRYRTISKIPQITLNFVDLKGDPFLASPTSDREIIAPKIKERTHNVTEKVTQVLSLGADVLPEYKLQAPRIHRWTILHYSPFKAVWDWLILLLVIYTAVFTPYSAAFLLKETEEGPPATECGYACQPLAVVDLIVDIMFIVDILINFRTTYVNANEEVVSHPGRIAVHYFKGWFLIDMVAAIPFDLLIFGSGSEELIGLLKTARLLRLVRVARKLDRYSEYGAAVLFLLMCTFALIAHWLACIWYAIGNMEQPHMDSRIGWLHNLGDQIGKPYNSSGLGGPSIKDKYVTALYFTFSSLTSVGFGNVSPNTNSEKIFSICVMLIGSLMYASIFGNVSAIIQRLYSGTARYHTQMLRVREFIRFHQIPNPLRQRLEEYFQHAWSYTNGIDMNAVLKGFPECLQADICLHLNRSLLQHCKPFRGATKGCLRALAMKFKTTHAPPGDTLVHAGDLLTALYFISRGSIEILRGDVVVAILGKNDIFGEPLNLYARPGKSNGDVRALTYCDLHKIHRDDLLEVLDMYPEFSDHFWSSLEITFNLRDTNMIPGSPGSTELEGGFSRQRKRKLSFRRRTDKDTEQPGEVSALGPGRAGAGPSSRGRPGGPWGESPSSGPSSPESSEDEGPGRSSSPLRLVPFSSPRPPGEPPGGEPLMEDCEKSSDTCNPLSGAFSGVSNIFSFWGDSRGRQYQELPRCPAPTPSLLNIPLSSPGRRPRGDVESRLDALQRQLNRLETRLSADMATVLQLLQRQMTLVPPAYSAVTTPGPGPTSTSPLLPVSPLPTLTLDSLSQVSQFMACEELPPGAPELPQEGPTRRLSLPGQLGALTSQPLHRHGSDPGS
`CC(C)N(CCO)C(=O)CCc1nnc(CCCc2ccccc2)o1` was tested, and the “hERG current change (%, negative = inhibition) at 1uM” value was 13.6%.
For `COc1ccccc1OCCCOc1c(C)cc(C)cc1Br`, the “hERG current change (%, negative = inhibition) at 1uM” value was 2.14%.
For `C#CNC(=O)C1(CC=C)CCNCC1`, the “hERG current change (%, negative = inhibition) at 1uM” value was 8.61%.
For `COc1cc(/C=N/NC2=NS(=O)(=O)c3ccccc32)ccc1OC(C)=O`, the “hERG current change (%, negative = inhibition) at 1uM” value was 12.6%.
For `CCC(C(=O)NC1CCCCC1)N(Cc1cccs1)C(=O)CCC(=O)Nc1cc(C)on1` (stereo not shown), the “hERG current change (%, negative = inhibition) at 1uM” value was 8.63%.
In the case of `COc1ccc(C(=O)CC(=O)C(=O)Nc2cc(OC)c(OC)c(OC)c2)cc1`, the “hERG current change (%, negative = inhibition) at 1uM” value is reported as 3.79%.
With `O=C(CSc1nc2ccccc2c(=O)[nH]1)Nc1ccccc1N1CCOCC1` the “hERG current change (%, negative = inhibition) at 1uM” value was 8.7%.
With `CCOC(=O)c1ccc2c(c1)N(CC(=O)N1CCCCC1)C(=O)C(C)(C)O2` the “hERG current change (%, negative = inhibition) at 1uM” value was 3.29%.
With `CCCCn1c(N)c(N(CCOC)C(=O)c2ccc(COc3ccccc3)o2)c(=O)[nH]c1=O` the “hERG current change (%, negative = inhibition) at 1uM” value was 5.39%.
For `CCOC(=O)N1CCN(C(=O)c2ccc(Cn3c(=S)[nH]c4cc(OCC)c(OCC)cc4c3=O)cc2)CC1`, the “hERG current change (%, negative = inhibition) at 1uM” value was 7.5%.
With `COc1ccc(Cn2nnc3c(=O)[nH]c(C(=O)NCCc4ccc(F)cc4)nc32)cc1OC` the “hERG current change (%, negative = inhibition) at 1uM” value was 12.8%.
With `CCSc1nnc(-c2ccc(S(=O)(=O)NCc3cccs3)cc2)o1` the “hERG current change (%, negative = inhibition) at 1uM” value was -6.04%.
`CC(C)c1cccc(OCCCCN(C)C)c1.O=C(O)C(=O)O` was tested, and the “hERG current change (%, negative = inhibition) at 1uM” value was 2.5%.
With `COc1cc(OC)cc(-c2nc(-c3cccs3)no2)c1` the “hERG current change (%, negative = inhibition) at 1uM” value was 11.8%.
With `Cc1ccc(CC(=O)N2CCOCC2)cc1` the “hERG current change (%, negative = inhibition) at 1uM” value was 6.52%.
`CCn1c(CCC(=O)Nc2cc(F)ccc2C)nc2cc(S(=O)(=O)N(C)C)ccc21` was tested, and the “hERG current change (%, negative = inhibition) at 1uM” value was 5.82%.
`Cc1cc(NC(=O)CSc2cn(CCNC(=O)c3ccccc3)c3ccccc23)no1` was tested, and the “hERG current change (%, negative = inhibition) at 1uM” value was 6.46%.
`COc1ccc(CCNC(=O)C2CCN(S(=O)(=O)c3cccc4nsnc34)CC2)cc1OC` was tested, and the “hERG current change (%, negative = inhibition) at 1uM” value was 1.53%.
`CCOC(=O)C1(CC2CCCCO2)CCN(C(=O)Nc2ccc(C)c(C)c2)CC1` (stereo not shown) was tested, and the “hERG current change (%, negative = inhibition) at 1uM” value was 11.8%.
In the case of `CCOC(=O)Nc1sc(C(=O)N(CC)CC)c(C)c1C(=O)OCC`, the “hERG current change (%, negative = inhibition) at 1uM” value is reported as 4.75%.
With `O=S(=O)(NC1CCCCC1N1CCOCC1)c1ccc(Cl)cc1` (stereo not shown) the “hERG current change (%, negative = inhibition) at 1uM” value was 8.63%.
With `Cc1cccc(NC(=O)c2ccco2)c1C` the “hERG current change (%, negative = inhibition) at 1uM” value was 17.6%.
With `O=S(=O)(NCC(c1ccco1)N1CCc2ccccc2C1)c1ccc(F)cc1` (stereo not shown) the “hERG current change (%, negative = inhibition) at 1uM” value was 8.95%.
`COc1ccc(C2CC(=O)C3=C(C2)Nc2ccccc2N(C(=O)CCC(=O)O)C3c2ccc(F)cc2)cc1OC` (stereo not shown) was tested, and the “hERG current change (%, negative = inhibition) at 1uM” value was 12%.
For `Cl.N=c1sccn1CC(=O)Nc1cccc(S(=O)(=O)N2CCCCCC2)c1`, the “hERG current change (%, negative = inhibition) at 1uM” value was -10.7%.
With `O=C1/C(=C\c2ccco2)NC(=S)N1c1ccccc1` the “hERG current change (%, negative = inhibition) at 1uM” value was 17.6%.
In the case of `CCc1ccccc1NC(=O)c1cc(S(=O)(=O)N2CCCC2)c[nH]1`, the “hERG current change (%, negative = inhibition) at 1uM” value is reported as 6.11%.
For `CC(C)C(=O)Nc1ccc(Nc2ccccc2)cc1`, the “hERG current change (%, negative = inhibition) at 1uM” value was -7.46%.
For `O=C(On1c(-c2ccccc2)nc2ccccc2c1=O)c1ccco1`, the “hERG current change (%, negative = inhibition) at 1uM” value was 20.1%.
In the case of `O=S(=O)(NCc1ccccc1)c1ccc(-c2cnc(C3CC3)o2)cc1`, the “hERG current change (%, negative = inhibition) at 1uM” value is reported as 12.1%.
In the case of `CCOC(=O)C1CCCN(C2=NC(=O)/C(=C/c3ccc(OC)cc3OC)S2)C1` (stereo not shown), the “hERG current change (%, negative = inhibition) at 1uM” value is reported as 3.99%.
For `COc1cccc(NC(=O)C(C)OC(=O)CCCNC(=O)c2ccc(Cl)cc2)c1` (stereo not shown), the “hERG current change (%, negative = inhibition) at 1uM” value was 10.7%.
In the case of `CCOc1ccc(/C(O)=C2/C(=O)C(=O)N(CCN(CC)CC)C2c2cccs2)cc1` (stereo not shown), the “hERG current change (%, negative = inhibition) at 1uM” value is reported as 15.8%.
`CCCCC(=O)Nc1ccc(C(=O)Nc2ccc(OC)cc2[N+](=O)[O-])cc1` was tested, and the “hERG current change (%, negative = inhibition) at 1uM” value was 1.96%.
With `C/C(=N\NC(=O)c1c(-c2ccccc2Cl)noc1C)c1cccc(NC(=O)C(C)C)c1` the “hERG current change (%, negative = inhibition) at 1uM” value was -2.65%.
`O=C(CSc1nnc(COc2ccccc2)n1Cc1ccco1)NCc1ccco1` was tested, and the “hERG current change (%, negative = inhibition) at 1uM” value was 10.7%.
`CC(C)(C)n1ncc2c(=O)n(CC(=O)OCc3ccccc3)cnc21` was tested, and the “hERG current change (%, negative = inhibition) at 1uM” value was 13.8%.
With `CCN(CC)C(=O)CSc1ncnc2c1cnn2-c1ccccc1` the “hERG current change (%, negative = inhibition) at 1uM” value was 4.56%.
For `CCc1cc(C(=O)c2ccc(OC)cc2)c(NC(=O)CN2CCN(C)CC2)s1`, the “hERG current change (%, negative = inhibition) at 1uM” value was -5.96%.
For `O=C(Nc1ccccc1N1CCN(c2ccc(F)cc2)CC1)C12CC3CC(CC(C3)C1)C2`, the “hERG current change (%, negative = inhibition) at 1uM” value was 0.695%.
In the case of `O=C(CSc1nnc(-c2cccs2)o1)OC1CCCCC1`, the “hERG current change (%, negative = inhibition) at 1uM” value is reported as 11.3%.
For `O=C(CSc1nnc(-c2ccco2)n1Cc1ccccc1)c1ccccc1`, the “hERG current change (%, negative = inhibition) at 1uM” value was 8.89%.
In the case of `Cc1nc(NC(=S)NC(=O)c2cccs2)sc1C(=O)N(C)C`, the “hERG current change (%, negative = inhibition) at 1uM” value is reported as 1.34%.
